Data from PubChem BioAssay AID720709 (National Center for Advancing Translational Sciences (NCATS), 2013).
Screen size: about 360,000 compounds; about 520 (0.14%) were called active. Inconclusive results, whose numbers are uncertain, are shown with a selection of clear calls. Calls follow the shape of the dose curve; as a rule, active = well fitted inhibition curve with a large enough effect; inconclusive = small, poorly fitted or top-dose-only effect; inactive = no such curve, though single readings can be large or run the other way. Potencies of inconclusive entries are left out as doubtful fits.

target: Rap guanine nucleotide exchange factor 3 (Homo sapiens) (UniProt O95398); test: qHTS for Antagonist of cAMP-regulated guanine nucleotide exchange factor 3 (EPAC1): primary screen; conditions: EPAC1 GEF assay, Rap1b-BODIPY-GDP exchange fluorescence; activity change, negative = inhibition: at 115 µM (top of the series); also: nearly all actives have a fitted effect of over 50% in size;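 as to activity change, negative = inhibition: plate controls were vehicle for no effect and positive control for full effect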
Potency is read from the fitted curve at half-maximal effect; tags tell the direction and shape of the fitted curve.

Sequence of UniProt O95398 (O95398 whole entry, looked up): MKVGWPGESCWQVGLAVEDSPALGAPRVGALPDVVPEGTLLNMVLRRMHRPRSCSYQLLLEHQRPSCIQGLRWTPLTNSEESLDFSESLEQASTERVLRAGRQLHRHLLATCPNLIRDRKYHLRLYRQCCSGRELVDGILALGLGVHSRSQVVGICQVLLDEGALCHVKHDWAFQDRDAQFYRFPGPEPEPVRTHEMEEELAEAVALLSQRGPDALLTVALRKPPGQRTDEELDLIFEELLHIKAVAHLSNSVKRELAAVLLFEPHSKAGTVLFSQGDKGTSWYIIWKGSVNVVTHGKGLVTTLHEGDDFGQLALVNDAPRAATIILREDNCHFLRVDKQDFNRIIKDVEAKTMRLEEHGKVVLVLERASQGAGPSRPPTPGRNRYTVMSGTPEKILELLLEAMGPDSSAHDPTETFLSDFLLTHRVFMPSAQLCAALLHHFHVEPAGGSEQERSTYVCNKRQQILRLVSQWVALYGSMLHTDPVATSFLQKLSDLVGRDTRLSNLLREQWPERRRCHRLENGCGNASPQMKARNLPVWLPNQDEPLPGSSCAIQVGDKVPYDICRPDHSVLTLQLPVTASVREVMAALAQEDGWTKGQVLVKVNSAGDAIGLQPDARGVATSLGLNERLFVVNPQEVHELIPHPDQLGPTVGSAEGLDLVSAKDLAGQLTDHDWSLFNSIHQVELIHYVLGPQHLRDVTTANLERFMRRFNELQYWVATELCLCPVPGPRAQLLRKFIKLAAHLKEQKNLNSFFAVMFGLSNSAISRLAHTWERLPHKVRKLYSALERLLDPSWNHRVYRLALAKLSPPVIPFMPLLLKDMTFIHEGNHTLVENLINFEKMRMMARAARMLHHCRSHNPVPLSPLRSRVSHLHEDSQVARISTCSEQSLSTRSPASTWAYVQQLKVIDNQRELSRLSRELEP

Row | Compound | Potency | activity change, negative = inhibition
1 | O=C(O)CSc1cc(NS(=O)(=O)c2cccc([N+](=O)[O-])c2)c2ccccc2c1O | inconclusive [inhibitor, partial curve, poor fit] | 
2 | COC(=O)[C@H](Cc1ccc(O)cc1)NC(=O)Cn1cnc2c(SC)nc(N)nc21 | inconclusive [inhibitor, single point] | 
3 | NCCCC[C@H]1CNC(=S)N1CCc1cccc(F)c1 | inconclusive [inhibitor, single point] | 
4 | N#CCC(=O)Nc1ccc(C(=O)Nc2cccc(S(N)(=O)=O)c2)cc1 | inconclusive [inhibitor, single point] | 
5 | COC(=O)C1=C(CSc2nc3c(cc2C#N)CN(C)CC3)OC(N)=C(C#N)C1c1ccc(F)cc1 (stereo unspecified) | inconclusive [inhibitor, single point] | 
6 | CC(C)(C)OC(=O)N1CCC(CC2CC(c3ccc(Cl)cc3)=NO2)(C(=O)NCC2CCCCC2)CC1 (stereo unspecified) | inconclusive [inhibitor, full curve, poor fit] | 
7 | O=S(=O)(NCc1cccnc1)c1ccc(Br)c2ccccc12 | inconclusive [inhibitor, single point] | 
8 | CN(CC(=O)Nc1cc(S(=O)(=O)N2CCCC2)ccc1Cl)Cc1cccs1 | inconclusive [inhibitor, single point] | 
9 | CC(C)[Si]1(C(C)C)OCC2OC(n3cnc4c(N)ncnc43)C(N)C2O[Si](C(C)C)(C(C)C)O1 (stereo unspecified) | inconclusive [inhibitor, full curve, poor fit] | 
10 | Cc1cc(OC(=O)CNC(=O)OC(C)(C)C)c2c(C)cc(=O)oc2c1 |  | inconclusive: -17% [inhibitor]
11 | CCCCCNC(=O)C(c1ccc(C(F)(F)F)cc1)n1c(=O)c(-c2ccco2)nc2ccccc21 (stereo unspecified) | inconclusive [inhibitor, single point] | 
12 | O=S(=O)(Nc1ccc2nc(N3CCOCC3)sc2c1)c1ccc(Cl)cc1 | inconclusive [inhibitor, single point] | 
13 | CCC1(C)OC(=O)N2CCc3c(C)[nH]c4c(C)ccc(c34)C21C (stereo unspecified) | inactive | 
14 | CC1CC(C)CN(C(=O)c2ccc(-c3ccc([N+](=O)[O-])cc3)o2)C1 (stereo unspecified) | inconclusive [inhibitor, single point] | 
15 | CNC(=O)C(=O)NCC1OCCN1S(=O)(=O)c1ccc(OC)c(OC)c1 (stereo unspecified) | inactive | 
16 | CCCc1cc(=O)oc2cc(OCC(=O)Nc3cc(C)on3)ccc12 | inconclusive [inhibitor, partial curve] | 
17 | COc1ccc(OC)c(NC(=O)CSc2sc3c(O)cc(=O)[nH]c3c2C#N)c1 | inconclusive [inhibitor, partial curve] | 
18 | O=C(Nc1cccc(-c2nnc(-c3ccco3)o2)c1)C(c1ccccc1)c1ccccc1 | inconclusive [inhibitor, partial curve] | 
19 | CCn1nc(C)c(NC(=O)/C=C/c2ccc(OC)c(COc3ccc(Cl)cc3Br)c2)c1C | inconclusive [inhibitor, partial curve] | 
20 | Cc1cc(/C=C2\SC(=S)NC2=O)c(C)n1-c1ccc(O)cc1 | inconclusive [inhibitor, single point] | 
21 | O=C(O)c1ccc(CSc2nnc(-c3ccccc3)n2-c2ccccc2)cc1 | inconclusive [inhibitor, single point] | 
22 | CCc1ccc(C(=O)Nc2nc3ccccc3[nH]2)cc1 | inconclusive [inhibitor, partial curve, poor fit] | 

Row | Compound | Potency | activity change, negative = inhibition
23 | Cc1ccc(Nc2nc3nonc3nc2N(C)C)cc1 | inactive | 
24 | OC(COC1CCCCC1)CN1CCCCC1 (stereo unspecified) | inactive | 
25 | Cc1cccc(C)c1N1C(=O)c2ccccc2NC(=O)C1C(=O)NCCc1ccccc1F (stereo unspecified) | inactive | 
26 | CC(=O)c1cccc(OC(=O)c2cc(S(=O)(=O)N3CCOCC3)ccc2N2CCCC2)c1 | inactive | 
27 | COc1ccc(C[C@@H]2OC3(C=CC(=O)C=C3)O[C@H]2Cc2ccc(OC)cc2)cc1 | inactive | 
28 | N#CCC(=O)Nc1ccc(C(=O)NNC(=S)NC2CC2)cc1 | inactive | 
29 | O=C(NC1CCCC1)c1ccc2nc(-c3ccco3)c(-c3ccco3)nc2c1 | inconclusive [inhibitor, partial curve] | 
30 | COc1ccccc1CC(=O)N1CCCC(CCC(=O)NCc2ccccc2F)C1 (stereo unspecified) | inconclusive [inhibitor, partial curve] | 
31 | Cc1ccc(-n2nc3cc(C)c(N)cc3n2)cc1 | inactive | 
32 | O=C(COC(=O)c1cc(=O)[nH]c2ccccc12)NCCc1ccccc1 | inactive | 
33 | Cc1ccc(C)c(S(=O)(=O)NCCCc2ccccc2)c1 | inconclusive [inhibitor, full curve] | 
34 | O=c1[nH]nc(-c2ccccc2)c2ccccc12 | inactive | 
35 | Cc1ccc(S(=O)(=O)Nc2cc(C(F)(F)F)ccc2N2CCOCC2)c(C)c1 | inconclusive [inhibitor, full curve] | 
36 | CC(=O)Nc1ccc(S(=O)(=O)Nc2nc3ccccc3nc2-n2ccc(=NC(=O)c3ccccc3)cc2)cc1 | inconclusive [inhibitor, single point] | 
37 | CCOC(=O)C1(CCc2ccccc2)CCN(Cc2c(O)cccc2OC)CC1 | inactive | 
38 | Cc1ccc(-c2nc3ccc(Cl)cn3c2Cc2cccc(Cl)c2)cc1 | inactive | 
39 | Cc1ccc(C(=O)Nc2cccc(C(=O)O)c2)cc1S(=O)(=O)N1CCCCC1 | inconclusive [inhibitor, single point] | 
40 | Cc1csc2nc(O)c(C(=O)NCCCc3ccccc3)c(=O)n12 | inconclusive [inhibitor, single point] | 
41 | COc1ccc(OC)c(CCNC(=O)c2ccc(CS(=O)(=O)c3ccc(Br)cc3)o2)c1 | inconclusive [inhibitor, full curve, poor fit] | 
42 | COc1cccc(C(=O)Nc2sc3c(c2C(=O)O)CCCC3)c1 | inconclusive [inhibitor, full curve, poor fit] | 
43 | Cc1ccc(C(=O)C2CC2)cc1C | inconclusive [inhibitor, full curve, poor fit] | 
44 | Cc1cc(OCC(=O)NCCc2ccc(Cl)cc2)c2c(C)cc(=O)oc2c1 | inconclusive [inhibitor, partial curve, poor fit] | 

Row | Compound | Potency | activity change, negative = inhibition
45 | Fc1ccc(C2N(c3ccccc3)C(=S)N3CCCN23)cc1 (stereo unspecified) | inconclusive [inhibitor, single point] | 
46 | O=C(CNC(=O)c1ccc2c(c1)OCO2)N/N=C(Br)/C=C/c1ccccc1 | inconclusive [inhibitor, single point] | 
47 | CC(=O)c1cccc(-c2cnc3c(NC=O)cc(-c4ccccc4F)cn23)c1 | inconclusive [inhibitor, full curve, poor fit] | 
48 | CC(Nc1nc(-c2ccccc2O)nc2ccccc12)c1ccccc1 (stereo unspecified) | inconclusive [inhibitor, partial curve] | 
49 | COc1ccc(S(=O)(=O)N2CCCCC2)cc1NC(=O)c1c(F)cccc1Cl | active: 56.2 µM | 
50 | O=C(CSc1ccc(-c2ccco2)nn1)c1ccc(F)cc1 | inconclusive [inhibitor, partial curve] | 
51 | Cc1ccc(C(=O)Nc2ccc(N3CCOCC3)c3nonc23)cc1[N+](=O)[O-] | inconclusive [inhibitor, single point] | 
52 | CCOc1cc(/C=C2\SC(=O)N(CC(=O)Nc3ccccc3F)C2=O)cc([N+](=O)[O-])c1O | inconclusive [inhibitor, full curve, poor fit] | 
53 | CCOC(=O)c1cnc2c(-c3cccc(Br)c3)cnn2c1C | inconclusive [inhibitor, single point] | 
54 | COc1cc(CNCc2ccccn2)ccc1OCc1ccc(Cl)c(Cl)c1 | inactive | 
55 | COc1ccc(NC(=O)CCN2C(=O)C3CC=CCC3C2=O)cc1S(=O)(=O)N1CCCCC1 (stereo unspecified) | inconclusive [inhibitor, single point] | 
56 | Cc1ccc(/C=C(\C#N)C(=O)Nc2cccc3ncccc23)o1 | inconclusive [inhibitor, single point] | 
57 | COc1ccc(N2C(=O)CCC(C(=O)N3CCN(c4ccccn4)CC3)C2c2ccc(F)cc2)cc1 (stereo unspecified) | inconclusive [inhibitor, partial curve] | 
58 | CCc1ccccc1NC(=O)c1cc(-c2cccs2)on1 | inconclusive [inhibitor, single point] | 
59 | O=S(=O)(c1ccccc1)n1ccc(-c2cnc(-c3ccccc3)s2)n1 | inactive | 
60 | CCC(C)c1ccc(NC(=S)Nc2ccc(OC)cc2)cc1 (stereo unspecified) | inactive | 
61 | CCCn1ncc(/C=N/O)c1C | inconclusive [inhibitor, partial curve] | 
62 | CNC(=S)N/N=C/c1cn(CCOc2cccc(OC)c2)c2ccccc12 | inactive | 
63 | O=C(COC(=O)c1ccc2ncsc2c1)Nc1ncc(Cl)cc1Cl | inconclusive [inhibitor, single point] | 
64 | CCCCOC(=O)c1ccc(NC(=O)C(=O)CC(=O)c2ccc(OC)cc2)cc1 | inconclusive [inhibitor, single point] | 
65 | Cc1c(CC(=O)NCCCC(=O)O)c(=O)oc2cc3occ(-c4ccccc4)c3cc12 | inactive | 
66 | CCOC(=O)[C@@H]1[C@H]2COc3ccccc3[C@@H]2N2C(=O)N(c3ccc(Br)cc3)C(=O)[C@]12C | inconclusive [inhibitor, partial curve] | 
